Data taken from PubChem BioAssay AID334 (DTP/NCI, 2004).
Inconclusive results and toxic doses are left out. The source holds more than one record for some entries. Only these are listed. An entry can have further records. The records of an entry repeat one measurement (runs, samples, wells, individuals or studies).

System: CD2F1 mice, intracerebral P388 leukemia, median survival T/C%
Assay: NCI In Vivo Anticancer Drug Screen. Data for tumor model P388 Leukemia (intracerebral) in CD2F1 (CDF1) mice
Settings: endpoint: median survival time, schedule: Q01DX005 (ip), higher = longer survival
Method: The antitumor activity of compounds was measured in mice bearing transplantable tumors. Survival or tumor size were measured and the results are expressed as the measurement made in the treated group (T) divided by the measurement made in the vehicle treated control group (C). The tumor model used in this assay is P388 Leukemia (intracerebral) in CD2F1 (CDF1) mice

SMILES | T/C (dose: 16.0 mg/kg/injection, vehicle: saline) | T/C (dose: 100.0 mg/kg/injection, vehicle: Klucel (hydroxypropylcellulose) (HPC))
COS(C)(=O)=O | 105 % of control and 156 % of control | 
COc1cc(C[C@H]2c3cc(OC)c(OC)cc3CCN2C)c(Oc2cc3c(cc2OC)-c2c(OC)c(OC)cc4c2[C@H](C3)N(C)CC4)cc1OC |  | 104 % of control, 107 % of control, 158 % of control
